Source: patent US6544989B2, “Benzazoles: benzoxazole, benzthiazole and benzimidazole derivatives” (Syngenta Limited, priority 1998, dated 2003)

How the values were obtained:
Settings in all cases: 500 ppm by weight; mortality assessed usually between three and five days after treatment
[1] = tested on: Myzus persicae; experiment: Pesticidal test, Myzus persicae mortality
[2] = tested on: Heliothis virescens
[3] = tested on: Musca domestica
[4] = tested on: Tetranychus urticae
[5] = tested on: Spodoptera exigua; experiment: Pesticidal test, Spodoptera exigua mortality

SMILES	MYZUPE = Myzus persicae, grading of mortality (score) [1]	HELIVI = Heliothis virescens, grading of mortality (score) [2]	MUSCDO AK = Musca domestica (kill), grading of mortality (score) [3]	TETRUR = Tetranychus urticae, grading of mortality (score) [4]	LAPHEG = Spodoptera exigua, grading of mortality (score) [5]
Cc1nsc(NC(=O)Cc2ccc3oc(-c4cc(Cl)cc(Cl)c4)nc3c2)c1Cl [261(A3)]	0 (0 indicates less than 40% mortality)	0 (0 indicates less than 40% mortality)	0 (0 indicates less than 40% mortality)	0 (0 indicates less than 40% mortality)	0 (0 indicates less than 40% mortality)
Cc1nsc(NC(=O)Cc2ccc3oc(-c4sccc4Cl)nc3c2)c1Cl [331(A3)]	0 (0 indicates less than 40% mortality)	0 (0 indicates less than 40% mortality)	0 (0 indicates less than 40% mortality)	0 (0 indicates less than 40% mortality)	0 (0 indicates less than 40% mortality)
Cc1nsc(NC(=O)Cc2ccc3oc(O)nc3c2)c1Cl [351(A3)]	0 (0 indicates less than 40% mortality)	0 (0 indicates less than 40% mortality)	0 (0 indicates less than 40% mortality)	0 (0 indicates less than 40% mortality)	0 (0 indicates less than 40% mortality)
Cc1nsc(NC(=O)Cc2ccc3oc(S)nc3c2)c1Cl [352(A3)]	5 (5 indicates 40-79% mortality)	0 (0 indicates less than 40% mortality)	0 (0 indicates less than 40% mortality)	0 (0 indicates less than 40% mortality)	0 (0 indicates less than 40% mortality)
Cc1nsc(NC(=O)Cc2ccc3oc(CC(C)(C)C)nc3c2)c1Cl [Compound 15(A3)]	9 (9 indicates 80-100% mortality)	9 (9 indicates 80-100% mortality)	0 (0 indicates less than 40% mortality)	9 (9 indicates 80-100% mortality)	9 (9 indicates 80-100% mortality)
